Like-named read-outs stand apart in the source and are kept apart here. Marks after values point to notes of the source that are not given here.
Key:
[1] = system: IL-6 production in RAW264.7 cells; assay: IL-6 production from RAW264.7 cells, LPS (Experiment 4); conditions: LPS 2 μg/mL
[2] = system: TNF-α production in RAW264.7 cells; assay: TNF-α production from RAW264.7 cells, LPS (Experiment 4); conditions: for TNF-α Concentration: LPS 2 μg/mL; for IC50: Mus musculus, RAW264.7, read-out: concentration required for attaining 50% inhibition (IC50) of the TNF-α concentration in a control
RAW264.7 cells = conditions: mouse, 1 day

Compound: Nc1c2ncn([C@@H]3O[C@H](CO)[C@@H](O)[C@H]3O)c2nc[n+]1[O-] [ANO, adenosine N1-oxide]
- IL-6 Concentration ([1]; test substance 0.1 μM): 3156 pg/mL
- IL-6 Concentration ([1]; test substance 0.3 μM): 2993 pg/mL
- IL-6 Concentration ([1]; test substance 0.6 μM): 2688* pg/mL
- IL-6 Concentration ([1]; test substance 1 μM): 2645* pg/mL
- IL-6 Concentration ([1]; test substance 3 μM): 2088* pg/mL
- IL-6 Concentration ([1]; test substance 6 μM): 1739* pg/mL
- IL-6 Concentration ([1]; test substance 12 μM): 1103* pg/mL
- TNF-α Concentration ([2]; test substance 0.1 μM): 648.7 pg/mL
- TNF-α Concentration ([2]; test substance 0.3 μM): 543.3 pg/mL
- TNF-α Concentration ([2]; test substance 0.6 μM): 361.6* pg/mL
- TNF-α Concentration ([2]; test substance 1 μM): 333.2* pg/mL
- TNF-α Concentration ([2]; test substance 3 μM): 259.1* pg/mL
- TNF-α Concentration ([2]; test substance 6 μM): 270.4* pg/mL
- TNF-α Concentration ([2]; test substance 12 μM): 162.3* pg/mL
- IC50 [2]: 1.2 µM
- Cell viability (RAW264.7 cells; 0.1 μM): 100%
- Cell viability (RAW264.7 cells; 0.3 μM): 100%
- Cell viability (RAW264.7 cells; 0.6 μM): 100%
- Cell viability (RAW264.7 cells; 1 μM): 100%
- Cell viability (RAW264.7 cells; 3 μM): 100%
- Cell viability (RAW264.7 cells; 6 μM): 100%
- Cell viability (RAW264.7 cells; 12 μM): 100%

Compound: Nc1ncnc2c1ncn2[C@@H]1O[C@H](CO)[C@@H](O)[C@H]1O [AN, adenosine, reference compound]
- IL-6 Concentration ([1]; test substance 1 μM): 3062 pg/mL
- IL-6 Concentration ([1]; test substance 3 μM): 2862 pg/mL
- IL-6 Concentration ([1]; test substance 6 μM): 2768 pg/mL
- IL-6 Concentration ([1]; test substance 12 μM): 2672* pg/mL
- IL-6 Concentration ([1]; test substance 24 μM): 2624* pg/mL
- IL-6 Concentration ([1]; test substance 32 μM): 2867* pg/mL
- IL-6 Concentration ([1]; test substance 40 μM): 2435* pg/mL
- TNF-α Concentration ([2]; test substance 1 μM): 634.1 pg/mL
- TNF-α Concentration ([2]; test substance 3 μM): 460.2 pg/mL
- TNF-α Concentration ([2]; test substance 6 μM): 398.7 pg/mL
- TNF-α Concentration ([2]; test substance 12 μM): 404.5 pg/mL
- TNF-α Concentration ([2]; test substance 24 μM): 346.8* pg/mL
- TNF-α Concentration ([2]; test substance 32 μM): 308.5* pg/mL
- TNF-α Concentration ([2]; test substance 40 μM): 193.1* pg/mL
- IC50 [2]: 22 µM
- Cell viability (RAW264.7 cells; 1 μM): 100%
- Cell viability (RAW264.7 cells; 3 μM): 100%
- Cell viability (RAW264.7 cells; 6 μM): 100%
- Cell viability (RAW264.7 cells; 12 μM): 100%
- Cell viability (RAW264.7 cells; 24 μM): 99%
- Cell viability (RAW264.7 cells; 32 μM): 98%
- Cell viability (RAW264.7 cells; 40 μM): 97%

From US9757408B2 (Hayashibara Co., Ltd., priority 2010, dated 2017)
